Where “and” joins values, the source holds several entries; their conditions need not be identical. Equal values may be shown once. The inconclusive results got no clear call from the source; some entries with a clear call stand among them for comparison. For some assays here: Potencies of inconclusive entries are doubtful fits and often do not repeat. Where a structure was tested more than once in an assay, its records may differ in their call. Calls of active or inactive are those of the source. Unless noted, the call rests on the fitted dose curve; in most records, active means well fitted curve in the direction sought with a large enough effect in the repeat runs; inconclusive means weak or mixed curves; inactive means no such curve, though single readings can be large; an effect the other way counts as inactive or inconclusive.
Experiments:
[1] = biological target: Peroxisome proliferator-activated receptor gamma (Homo sapiens) (UniProt P37231); assay: qHTS assay to identify small molecule antagonists of the peroxisome proliferator-activated receptor gamma (PPARg) signaling pathway (AID 743191; calls by dose curve; further: nearly all actives have a fitted effect of over 30% in size; further: potency means the concentration at half of the fitted maximal effect; on ratio activity, negative = inhibition: on the % scale 0 is the no-effect control and ±100 the full control effect); conditions: HEK293H PPARg-UAS-bla, beta-lactamase ratio, antagonist, 17 h; ratio activity, negative = inhibition: at 62.6 µM (top of the series) unless noted
How it was run: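 GeneBLAzer PPARg UAS-bla HEK293H cells, 5 h post-plating, exposed to compounds 17 h at 37C. LiveBLAzer B/G FRET substrate added for 1 h at room temperature; beta-lactamase reporter read by fluorescence intensity.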

[2] = qHTS assay to identify small molecule antagonists of the peroxisome proliferator-activated receptor gamma (PPARg) signaling pathway - cell viability counter screen (AID 743194); conditions: PPARg-bla HEK293H viability, CellTiter-Glo luminescence, 17 h, co-treated with 50 nM rosiglitazone; activity change, negative = cytotoxicity: at 62.6 µM (top of the series); further: nearly all actives have a fitted effect of over 55% in size; further: potency means the concentration at half of the fitted maximal effect; on activity change, negative = cytotoxicity: on the % scale 0 is the no-effect control and ±100 the full control effect
How it was run: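 Cytotoxicity counter screen in PPARg-bla HEK293H cells, same wells as reporter assay. Compounds plus 50 nM rosiglitazone (final) for 17 h at 37 C, then viability read by CellTiter-Glo luminescence.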

[3] = qHTS assay for small molecule agonists of the antioxidant response element (ARE) signaling pathway - cell viability counter screen (AID 743203; calls by dose curve; further: potency means the concentration at half of the fitted maximal effect; nearly all actives have a fitted effect of over 55% in size); conditions: ARE-bla HepG2 viability, CellTiter-Glo luminescence, 16 h; viability change, negative = cytotoxic: at 73.3 µM (top of the series)
How it was run: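 Cytotoxicity was tested in parallel with the ARE reporter screen. ARE-bla HepG2 cells were exposed to compounds for 16 hrs, and viability was taken from CellTiter-Glo luminescence.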

[4] = qHTS assay for small molecule activators of the heat shock response signaling pathway - cell viability counter screen (AID 743209); conditions: HSE-bla HeLa viability, CellTiter-Glo luminescence, 5 h; activity change, negative = cytotoxicity: at 62.6 µM (top of the series); further: nearly all actives have a fitted effect of over 50% in size; further: potency means the concentration at half of the fitted maximal effect
How it was run: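 Cytotoxicity counter screen run in parallel with the HSE beta-lactamase reporter, using the same wells. HeLa HSE-bla cells received compound for 5 h at 37 C; ATP-based CellTiter-Glo luminescence was measured after 30 min at room temperature.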

[5] = qHTS assay for small molecule activators of the heat shock response signaling pathway (AID 743210; active means well fitted activation curve with a large enough effect in the signal ratio in the repeat runs, with a control signal flat, not every such curve was filed as active; inconclusive means weak or mixed curves; the % refers to the signal ratio; further: potency means the concentration at half of the fitted maximal effect); conditions: HeLa HSE-bla reporter, beta-lactamase ratio, 5 h; activation: at 62.6 µM (top of the series)
How it was run: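 Following overnight attachment, HSE-bla HeLa cells received test compounds for 5 h at 37 C; beta-lactamase activity was then detected via FRET substrate fluorescence.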

[6] = qHTS assay to identify small molecule agonists of the peroxisome proliferator-activated receptor delta (PPARd) signaling pathway - cell viability counter screen (AID 743211); conditions: PPARd-bla HEK293H viability, CellTiter-Glo luminescence, 17 h; activity change, negative = cytotoxicity: at 62.6 µM (top of the series); further: potency means the concentration at half of the fitted maximal effect; nearly all actives have a fitted effect of over 55% in size
How it was run: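 PPARd-bla HEK293H cells (3000/well) were pre-incubated 5 h at 37 C, then exposed to compound for 17 h at 37 C. After 2 h with LiveBLAzer substrate, CellTiter-Glo was added to the same wells; luminescence read after 30 min at room temperature.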

[7] = qHTS assay to identify small molecule antagonists of the peroxisome proliferator-activated receptor delta (PPARd) signaling pathway - cell viability counter screen (AID 743213); conditions: PPARd-bla HEK293H viability, CellTiter-Glo luminescence, 17 h; viability change, negative = cytotoxic: at 62 µM (top of the series) unless noted; further: nearly all actives have a fitted effect of over 50% in size; further: potency means the concentration at half of the fitted maximal effect
How it was run: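 Cytotoxicity counter screen: CellTiter-Glo luminescence read 30 min after addition, in the same wells as the reporter assay. There, PPARd UAS-bla HEK293H cells (3000/well) were treated 17 h at 37 C with compound and 300 nM L165041.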

[8] = biological target: Bile acid receptor (Homo sapiens) (UniProt Q96RI1); assay: qHTS assay to identify small molecule antagonists of the farnesoid-X-receptor (FXR) signaling pathway (AID 743217; active means well fitted inhibition curve with a large enough effect in the signal ratio in the repeat runs, not every such curve was filed as active; inconclusive means weak or mixed curves, or effect the other way; inactive means no such curve, though single readings can be large or run the other way; the % refers to the signal ratio; further: potency means the concentration at half of the fitted maximal effect); conditions: HEK293T FXR-UAS-bla, beta-lactamase ratio, CDCA-stimulated, 16 h; activity change, negative = inhibition: at 62.6 µM (top of the series) unless noted
How it was run: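 Cells carrying a UAS-driven beta-lactamase reporter (GeneBLAzer FXR-UAS-bla HEK 293T) were plated and rested 5 h at 37 °C. Compounds in DMSO were added alongside chenodeoxycholic acid agonist at 50 uM final and left 16 h at 37 °C before FRET substrate readout.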

[9] = qHTS assay to identify small molecule agonists of the farnesoid-X-receptor (FXR) signaling pathway - cell viability counter screen (AID 743218); conditions: FXR-bla HEK293T viability, CellTiter-Glo luminescence, 16 h; viability change, negative = cytotoxic: at 62.6 µM (top of the series) unless noted; further: potency means the concentration at half of the fitted maximal effect; nearly all actives have a fitted effect of over 45% in size
How it was run: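 Cells were seeded, left 5 h at 37 C and 5% CO2, then dosed with compound in DMSO for 16 h. After the beta-lactamase FRET read, CellTiter-Glo was added and luminescence measured 30 min later.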

[10] = qHTS assay to identify small molecule antagonists of the farnesoid-X-receptor (FXR) signaling pathway - cell viability counter screen (AID 743221; active means well fitted cell-killing curve with a large enough effect in the repeat runs, not every such curve was filed as active; inconclusive means weak or mixed curves, or effect the other way; inactive means no such curve, though single readings can be large or run the other way; further: potency means the concentration at half of the fitted maximal effect; nearly all actives have a fitted effect of over 50% in size); conditions: FXR-bla HEK293T viability, CellTiter-Glo luminescence, 16 h; activity change, negative = cytotoxicity: at 62.6 µM (top of the series)
How it was run: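 GeneBLAzer FXR-UAS-bla HEK 293T cells, compound plus chenodeoxycholic acid (50 uM final), 16 h at 37 C. CellTiter-Glo added to the same wells after the beta-lactamase read; luminescence read after 30 min at room temperature as viability.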

[11] = biological target: Vitamin D3 receptor (Homo sapiens) (UniProt P11473); assay: qHTS assay to identify small molecule antagonists of the vitamin D receptor (VDR) signaling pathway (AID 743223; active means well fitted inhibition curve with a large enough effect in the signal ratio in the repeat runs, not every such curve was filed as active; inconclusive means weak or mixed curves, or effect the other way; inactive means no such curve, though single readings can be large or run the other way; the % refers to the signal ratio; further: potency means the concentration at half of the fitted maximal effect; on activity change, negative = inhibition: on the % scale 0 is the no-effect control and ±100 the full control effect); conditions: VDR-UAS-bla HEK293T, beta-lactamase FRET ratio, 16 h; activity change, negative = inhibition: at 61 µM (top of the series) unless noted
How it was run: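 VDR-bla cells were treated with compound plus 3 nM final 1alpha,25-dihydroxyvitamin D3 for 16 h at 37C. Beta-lactamase reporter read by B/G FRET substrate fluorescence after 2 h at room temperature. qHTS format.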

[12] = qHTS assay for small molecule agonists of the antioxidant response element (ARE) signaling pathway (AID 743202; active means well fitted activation curve with a large enough effect in the signal ratio in the repeat runs, not every such curve was filed as active; inconclusive means weak or mixed curves, or effect the other way; inactive means no such curve, though single readings can be large or run the other way; the % refers to the signal ratio; further: potency means the concentration at half of the fitted maximal effect); conditions: HepG2 ARE-bla reporter, beta-lactamase FRET, 16 h; activation: at 73.3 µM (top of the series) unless noted
How it was run: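 HepG2 ARE-bla cells; 16 h treatment at 37 C; FRET-based beta-lactamase fluorescence read after 2 h substrate incubation at room temperature.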

[13] = biological target: Peroxisome proliferator-activated receptor delta (Homo sapiens) (UniProt Q03181); assay: qHTS assay to identify small molecule antagonists of the peroxisome proliferator-activated receptor delta (PPARd) signaling pathway (AID 743215; active means well fitted inhibition curve with a large enough effect in the signal ratio in the repeat runs, not every such curve was filed as active; inconclusive means weak or mixed curves, or effect the other way; inactive means no such curve, though single readings can be large or run the other way; the % refers to the signal ratio;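 further: cells stimulated with agonist L165041 at 300 nM final during compound exposure; on the % scale 0 is the no-effect control and ±100 the full control effect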); conditions: HEK293H PPARd-UAS-bla, beta-lactamase FRET ratio, antagonist, 17 h; ratio activity, negative = inhibition: at 62 µM (top of the series) unless noted
How it was run: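 Cells: HEK293H with a UAS-driven beta-lactamase reporter responsive to PPARd. Compounds were co-added with L165041 (300 nM, final) and incubated 17 h at 37 C before a 2 h room-temperature FRET substrate step and fluorescence reading.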

[14] = biological target: Bile acid receptor (Homo sapiens) (UniProt Q96RI1); assay: qHTS assay to identify small molecule agonists of the farnesoid-X-receptor (FXR) signaling pathway (AID 743220; active means well fitted activation curve with a large enough effect in the signal ratio in the repeat runs, not every such curve was filed as active; inconclusive means weak or mixed curves, or effect the other way; the % refers to the signal ratio; further: potency means the concentration at half of the fitted maximal effect); conditions: HEK293T FXR-UAS-bla, beta-lactamase FRET ratio, 16 h; activation: at 62.6 µM (top of the series) unless noted
How it was run: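 FXR-UAS-bla HEK 293T cells carrying a UAS-driven beta-lactamase reporter were plated for 5 h at 37C/5% CO2, then exposed to DMSO-dissolved Tox21 10K compounds for 16 h at 37C. A LiveBLAzer B/G FRET substrate was loaded for 2 h at room temperature before fluorescence reading.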
Tags describe the fitted curve by direction and shape or compound fluorescence and quenching.

Sequence of UniProt Q96RI1 (Q96RI1 whole entry, looked up): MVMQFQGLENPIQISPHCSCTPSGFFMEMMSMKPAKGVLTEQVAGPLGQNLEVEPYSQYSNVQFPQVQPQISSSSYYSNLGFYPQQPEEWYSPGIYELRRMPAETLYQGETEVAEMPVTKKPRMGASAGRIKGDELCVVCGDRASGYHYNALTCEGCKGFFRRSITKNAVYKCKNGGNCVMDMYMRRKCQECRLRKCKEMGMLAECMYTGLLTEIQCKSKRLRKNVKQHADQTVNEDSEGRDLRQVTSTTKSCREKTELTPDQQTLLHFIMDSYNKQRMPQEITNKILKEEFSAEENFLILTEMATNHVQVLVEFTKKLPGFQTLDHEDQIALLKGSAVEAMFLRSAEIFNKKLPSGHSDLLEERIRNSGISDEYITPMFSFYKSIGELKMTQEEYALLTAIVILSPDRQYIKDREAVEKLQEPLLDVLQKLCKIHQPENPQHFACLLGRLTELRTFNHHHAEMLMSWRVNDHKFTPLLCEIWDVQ
Sequence of UniProt P37231 (P37231 whole entry, looked up): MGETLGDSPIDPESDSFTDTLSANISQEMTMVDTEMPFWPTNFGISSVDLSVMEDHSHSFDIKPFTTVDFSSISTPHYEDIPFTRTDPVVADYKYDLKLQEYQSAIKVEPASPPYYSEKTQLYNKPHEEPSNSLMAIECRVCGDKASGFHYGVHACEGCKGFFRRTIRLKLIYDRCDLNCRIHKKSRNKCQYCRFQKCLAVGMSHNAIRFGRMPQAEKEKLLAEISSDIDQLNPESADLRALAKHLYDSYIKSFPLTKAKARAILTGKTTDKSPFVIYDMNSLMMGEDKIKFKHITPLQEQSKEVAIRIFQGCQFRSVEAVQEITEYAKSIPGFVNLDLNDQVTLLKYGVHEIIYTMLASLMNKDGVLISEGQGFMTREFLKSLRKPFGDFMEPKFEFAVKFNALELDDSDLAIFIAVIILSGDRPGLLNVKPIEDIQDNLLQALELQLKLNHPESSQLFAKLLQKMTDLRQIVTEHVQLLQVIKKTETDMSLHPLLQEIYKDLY
Sequence of UniProt P11473 (P11473 whole entry, looked up): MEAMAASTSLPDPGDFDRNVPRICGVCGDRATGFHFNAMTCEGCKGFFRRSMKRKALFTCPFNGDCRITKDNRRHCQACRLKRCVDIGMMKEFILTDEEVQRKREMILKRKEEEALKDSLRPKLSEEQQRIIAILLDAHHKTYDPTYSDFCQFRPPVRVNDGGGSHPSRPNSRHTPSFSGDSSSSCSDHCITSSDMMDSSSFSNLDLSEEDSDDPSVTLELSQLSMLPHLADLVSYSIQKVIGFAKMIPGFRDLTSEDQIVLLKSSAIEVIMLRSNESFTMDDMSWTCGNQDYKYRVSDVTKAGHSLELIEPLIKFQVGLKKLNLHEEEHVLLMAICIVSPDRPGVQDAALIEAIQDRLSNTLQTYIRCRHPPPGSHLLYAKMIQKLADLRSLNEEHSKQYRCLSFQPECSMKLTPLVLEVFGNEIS
Sequence of UniProt Q03181 (Q03181 whole entry, looked up): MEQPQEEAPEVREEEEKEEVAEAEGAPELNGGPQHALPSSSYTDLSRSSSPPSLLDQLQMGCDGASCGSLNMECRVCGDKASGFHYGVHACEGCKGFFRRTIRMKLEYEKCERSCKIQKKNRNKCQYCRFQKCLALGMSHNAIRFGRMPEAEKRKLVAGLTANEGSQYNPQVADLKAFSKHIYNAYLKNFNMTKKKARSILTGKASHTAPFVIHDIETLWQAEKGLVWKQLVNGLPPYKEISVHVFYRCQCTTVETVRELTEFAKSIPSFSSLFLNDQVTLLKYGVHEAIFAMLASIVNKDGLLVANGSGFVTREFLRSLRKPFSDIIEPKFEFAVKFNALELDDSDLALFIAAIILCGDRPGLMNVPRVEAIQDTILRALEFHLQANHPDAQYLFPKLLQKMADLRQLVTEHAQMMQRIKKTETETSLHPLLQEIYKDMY

SMILES	Potency [1]	Potency [2]	Potency [3]	Potency [4]	Potency [5]	Potency [6]	Potency [7]	Potency [8]	Potency [9]	Potency [10]	Potency [11]	Potency [12]	ratio activity, negative = inhibition [13]	activity change, negative = cytotoxicity [4]	Potency [13]	Potency [14]
Fc1ccc(C(c2ccc(F)cc2)N2CCNCC2)cc1	inconclusive: 26.6 µM [inhibitor, partial curve]	active: 26.6 µM	active: 16.8 µM	active: 15 µM	inconclusive: 26.6 µM	active: 7.5 µM	active: 15 µM	active: 29.8 µM	active: 11.9 µM	active: 26.6 µM	inconclusive: 23.9 µM [inhibitor, single point]	–	–	–	–	–
COc1ccc(N=[N+]([O-])c2ccc(OC)cc2)cc1	inactive	inactive	–	–	–	–	–	–	inconclusive: 27.3 µM [rising, partial curve, poor fit]	–	inactive	inconclusive: 8.55 µM [rising, full curve]	inconclusive: 2.99%	–	–	–
Nc1ccc2cc3ccc(N)cc3nc2c1	inconclusive: 11 µM [rising, partial curve] and inconclusive: 13.3 µM [rising, partial curve]	inconclusive: 24.5 µM [cytotoxic, partial curve, poor fit] and inconclusive: 2.11 µM [cytotoxic, partial curve, poor fit]	–	active: 43.6 µM and inconclusive: 21.1 nM [cytotoxic, partial curve, poor fit]	–	inconclusive: 17.4 µM [cytotoxic, partial curve]	inconclusive: 27.5 µM [cytotoxic, partial curve, poor fit] and inactive	–	active: 3.89 µM	–	–	–	–	–	–	–
CCCCCCCCCCCCCCCCOP(=O)([O-])OCC[N+](C)(C)C	inconclusive: 37.6 µM [inhibitor, single point]	inconclusive: 33.5 µM [cytotoxic]	–	–	–	–	–	inconclusive: 13.3 µM [falling, partial curve, poor fit]	inconclusive: 33.5 µM [cytotoxic, single point]	–	inactive	inactive	–	inconclusive: -19.5% [cytotoxic]	inactive	inconclusive: 29.8 µM [activator, partial curve, poor fit]

Reference: PubChem BioAssay (Tox21)
